# Laboratory results taken from PMC4336329 (PLoS ONE, 2015).
# About 2,200 (0.71%) of roughly 310,000 compounds showed an effect of 50% or more. The effect is printed as a negative number. The list shows a part of the results.
# Molecular target: human ether-à-go-go-related gene (hERG) potassium channel (human, UniProt Q12809)
# Experiment: primary screen, population patch clamp on CHO cells stably expressing hERG
# human ether-à-go-go-related gene (hERG) potassium channel, sequence (Q12809 whole entry, looked up): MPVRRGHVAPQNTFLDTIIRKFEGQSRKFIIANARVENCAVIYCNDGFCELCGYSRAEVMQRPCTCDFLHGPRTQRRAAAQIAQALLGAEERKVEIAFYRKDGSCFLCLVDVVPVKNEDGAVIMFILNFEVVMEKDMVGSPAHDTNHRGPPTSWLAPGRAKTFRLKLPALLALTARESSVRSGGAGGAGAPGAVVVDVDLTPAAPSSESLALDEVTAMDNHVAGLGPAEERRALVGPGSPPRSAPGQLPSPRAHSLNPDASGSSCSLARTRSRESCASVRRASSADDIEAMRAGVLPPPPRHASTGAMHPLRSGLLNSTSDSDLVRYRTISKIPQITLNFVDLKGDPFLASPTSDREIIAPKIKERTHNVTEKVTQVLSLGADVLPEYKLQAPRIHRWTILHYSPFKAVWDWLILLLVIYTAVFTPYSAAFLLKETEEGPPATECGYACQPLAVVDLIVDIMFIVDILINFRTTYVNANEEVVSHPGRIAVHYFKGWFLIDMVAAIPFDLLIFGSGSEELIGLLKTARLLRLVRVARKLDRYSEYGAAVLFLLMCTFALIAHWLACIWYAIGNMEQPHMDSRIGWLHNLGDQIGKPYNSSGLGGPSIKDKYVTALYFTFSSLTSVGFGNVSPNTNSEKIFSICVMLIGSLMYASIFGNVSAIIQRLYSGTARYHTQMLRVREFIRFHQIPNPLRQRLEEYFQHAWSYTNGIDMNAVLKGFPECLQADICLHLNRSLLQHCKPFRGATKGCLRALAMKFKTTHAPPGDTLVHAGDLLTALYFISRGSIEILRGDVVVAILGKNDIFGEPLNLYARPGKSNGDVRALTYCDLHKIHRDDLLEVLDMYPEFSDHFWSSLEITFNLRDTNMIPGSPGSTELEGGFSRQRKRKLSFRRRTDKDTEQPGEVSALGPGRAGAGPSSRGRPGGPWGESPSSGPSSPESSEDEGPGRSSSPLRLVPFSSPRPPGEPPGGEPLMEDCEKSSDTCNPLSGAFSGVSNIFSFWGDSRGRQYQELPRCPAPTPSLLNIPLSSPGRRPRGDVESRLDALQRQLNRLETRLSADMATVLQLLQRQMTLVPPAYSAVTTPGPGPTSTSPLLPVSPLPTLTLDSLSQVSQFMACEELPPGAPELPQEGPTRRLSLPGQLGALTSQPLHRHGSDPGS
row,SMILES,"hERG current change (%, negative = inhibition) at 1uM [%]"
1,CCOC(=O)CCNC(=O)c1ccc2nc(C3CCCCC3)oc2c1,3.58
2,COc1ccc(CC(=O)OCc2cc3ccccc3[nH]c2=O)cc1,16.3
3,Cc1cc2c(NC(=O)Nc3ccccc3)cccc2nn1,11.3
4,c1ccc2c(-c3nnc(SCc4cn5ccccc5n4)o3)c[nH]c2c1,2.29
5,Cc1ccc(C)c(C(=O)COC(=O)Cn2c(C)csc2=O)c1,11.7
6,CCOC(=O)C[C@H]1c2ccc(C(F)(F)F)cc2S(=O)(=O)N1c1ccccc1,9.98
7,CCCCCC/C=C/c1ccc([C@H]2[C@H]3C=CC[C@@H](C)[C@@H]3C(=O)N2Cc2ccccc2)c(F)c1,10.4
8,O=C(O)CC(NC(=O)c1ccco1)c1ccco1 (centres unmarked),1.01
9,COc1ccc(-c2cc(C(F)(F)F)nc(SCC(=O)N(C)Cc3cnn(C)c3C)n2)cc1OC,-10.3
10,CS(=O)(=O)Nc1ccc(C(=O)NCCc2ccccc2)cc1,-28.3
11,O=C(CCC(=O)c1cccs1)Nc1ccc(N2CCCCC2)cc1,-2.42
12,CC(=O)N/C(=C\c1ccccc1)C(=O)OCC(=O)c1c(N)n(CC(C)C)c(=O)n(C)c1=O,11.4
13,CCNC(=O)C/C(C)=N/NC(=O)C12CC3CC(CC(C3)C1)C2,16.6
14,O=C(COc1ncnc2ccccc12)NCCc1ccc(F)cc1,5.77
15,Cc1cccc(C(=O)Nc2cccc(Br)c2)c1[N+](=O)[O-],8.53
16,CCOC(=O)c1cnc(SC)nc1Oc1cccc(NC(=O)c2ccc(C)cc2)c1,14.3
17,O=C(Cn1cc([N+](=O)[O-])cn1)Nc1cccnc1,2.54
18,COc1cccc(C(=O)c2c[nH]c(C(=O)NCCCN3CCOCC3)c2)c1,12.3
19,O=C(CCSc1nc(-c2ccco2)cc(C(F)(F)F)n1)NCCN1CCOCC1,13.2
20,O=C1/C(=C/c2ccncc2)SC(=S)N1C1CCCCC1,13.9
21,COP(=O)(OC)c1nc(-c2cccc3ccccc23)oc1NCCc1ccccc1,11.7
22,CN1CCC(NC(=O)c2cccs2)CC1,12.4
23,COc1ccccc1NC(=O)N1CCCC1C(=O)NC1CCCCC1 (centres unmarked),12.9

row,SMILES,"hERG current change (%, negative = inhibition) at 1uM [%]"
1,Cc1ccc2c(O)c(C)c(=O)[nH]c2n1,10.6
2,CC(C1CCN(Cc2cn(C)nc2-c2cccc(Cl)c2)CC1)N1CCOCC1 (centres unmarked),4.87
3,Cc1ccc(C)c(NC(=O)C2C(c3ccccc3)C2(Cl)Cl)c1 (centres unmarked),7.09
4,Clc1ccc(CSc2snnc2-c2ccccc2)c(Cl)c1,16.8
5,Cc1csc(SCC(=O)NCc2ccccc2Cl)n1,-3.75
6,Cc1cc(=O)oc2cc(OCc3ccc(C(=O)N4CCN(c5ccccc5)CC4)cc3)ccc12,13.3
7,CC1CN(C)C(C)CC1NCc1ccc2c(c1)OCO2 (centres unmarked),11.1
8,Cc1ccc(Cl)cc1N1CCN(S(=O)(=O)c2ccc3c(c2)oc(=O)n3C)CC1,-9.3
9,CN(C)S(=O)(=O)c1cccc(NC(=O)C2Cc3ccccc3CN2C(=O)c2ccco2)c1 (centres unmarked),6.88
10,COC(=O)c1ccccc1NC(=O)CN1CCC(C(=O)c2ccc3c(c2)OCCO3)CC1,15.8
11,Cc1ccccc1OCCC(=O)OCC(=O)NC1CCCCC1,-3.09
12,Cc1ccc(C)c(S(=O)(=O)Nc2ccc(C(=O)NCCCN3CCCC3=O)cc2)c1,9.62
13,CN=C(c1ccco1)n1c(=S)nc(-c2ccco2)n(C)c1=S,18.6
14,COc1ccccc1C(=O)NC(=S)Nc1ccc(N2CCCC2)cc1,6.05
15,Cc1ccc(-c2nc(C#N)c(NCCN3CCCCC3)o2)cc1,-29.7
16,O=c1cc(NCc2ccccc2)nc2n1CCCS2,10.4
17,COC(=O)/C(=C\Nc1ccc(Cl)c2ccccc12)c1ncc(C(F)(F)F)cc1Cl,12.5
18,Cc1cc(CN2CCC(N3CCC(C(=O)NC4CC4)CC3)CC2)cc(C)c1O,14.5
19,Cc1ccc(CNC(=O)C(Cc2ccccc2)n2cccc2)cc1 (centres unmarked),31.1
20,CCN1/C(=C(\O)c2ccccc2)C(=O)c2ccccc2S1(=O)=O,13.6
21,COc1cc(/C=C/C(=O)N2CCN(Cc3ccccc3)CC2)cc(OC)c1OC,13
22,CCC(C)(C)NC(=O)c1cc(C(=O)OC)cc([N+](=O)[O-])c1,-0.341
23,CCN(C(=O)CN1CCOCC1)c1c(N)n(Cc2ccccc2)c(=O)[nH]c1=O,16.1

row,SMILES,"hERG current change (%, negative = inhibition) at 1uM [%]"
1,COc1ccc(CCNC(=O)c2ccc3c(SCC(=O)O)c4c(nc3c2)CCCC4)cc1OC,13.2
2,Cc1cccc(NC(=O)C(=O)NCc2ccccn2)c1,-4.59
3,O=C(N/C(=C\c1ccccc1)C(=O)N1CCOCC1)c1ccco1,8.97
4,CN(C)c1ccc(/C=N\Nc2ccccn2)cc1,13.6
5,CN(c1ccc(C(=O)NCc2cccs2)cc1)S(=O)(=O)c1ccccc1,12.9
6,Cc1cccc(NC(=O)CN2C(=O)CCSc3ccc(S(=O)(=O)N4CCOCC4)cc32)c1C,13.1
7,CCOC(=O)c1c(C)[nH]c(C)c1C(=O)CN1C(=O)NC(CC(C)C)C1=O (centres unmarked),15.8
8,Cc1cc(S(=O)(=O)N2CCCC2)ccc1OCC(=O)NCc1ccccn1,11.4
9,O=C(NCCCN1CCOCC1)c1cc2nc(-c3ccco3)cc(C(F)(F)F)n2n1,11.4
10,C=CCOc1c(Cl)cc(CNc2ccc(N(C)C)cc2)cc1OC,21.4
11,O=C(O)C1CCCN(S(=O)(=O)c2ccccc2[N+](=O)[O-])C1 (centres unmarked),4.46
12,CN(CC(=O)NNC(=O)CNC(=O)c1ccccc1Cl)S(=O)(=O)c1ccc(Cl)cc1,18.1
13,S=C(NCCCn1ccnc1)NC1CCCCC1,-5.87
14,COc1ccccc1CCN1CCCC(CN(C)C(=O)c2ccco2)C1 (centres unmarked),-42.8
15,CC12CCC(=O)N1C(C(=O)NCCc1ccccc1)CS2 (centres unmarked),4.35
16,Cc1n[nH]c(=O)c2c(NC(=O)CSc3c(Cl)cccc3Cl)oc(C)c12,-1.97
17,CCOC(=O)Nc1c2ccccc2nc2ccccc12,9.63
18,O=C(N/N=C/c1c[nH]c2ccc(Br)cc12)c1ccncc1,12.3
19,CCOc1ccc(C(C(=O)NC2CCCC2)N(CCCO)C(=O)c2ccc(-c3ccccc3)[nH]2)cc1 (centres unmarked),-8.44
20,N#CCCC(CCC#N)(CCC#N)c1cc[n+](CCc2ccccn2)cc1.[Cl-],12.5
21,Cc1ccc(OCCn2cnc3c2c(=O)n(C)c(=O)n3C)cc1,22.9
22,COc1ccc(C)cc1S(=O)(=O)NC1CCCCCC1,8.89
23,CCOC(=O)c1ccc(NC(=O)C(=O)NCc2ccncc2)cc1,0.418

row,SMILES,"hERG current change (%, negative = inhibition) at 1uM [%]"
1,CCN(CC)S(=O)(=O)c1ccc(C)c(NC(=O)COc2ccc3c(C)cc(=O)oc3c2)c1,6.53
2,COc1ccc(S(=O)(=O)N2CCn3c2nc2ccccc23)cc1,-4.34
3,Cc1ccc(C2=N/C(=C/c3cccs3)C(=O)N2Nc2ccccc2)cc1,6.14
4,CCn1c(CC(=O)Nc2ccccc2C)nnc1SCC(=O)NC1CCCC1,-0.0032
5,CCN(c1ccccc1)S(=O)(=O)c1cc(C(=O)OC2CCOC2=O)ccc1C (centres unmarked),9.05
6,CC(C)Cn1cc(C(=O)N2CCC(C)CC2)c2c3ccccc3n(C)c2c1=O,-3.32
7,O=C(Nc1ccccc1-c1ccccc1)c1cc(C(F)(F)F)cc(C(F)(F)F)c1,3.19
8,COc1cc(NC(=O)C23CC4CC(C2)CC(n2cnc([N+](=O)[O-])n2)(C4)C3)cc(OC)c1,-13.4
9,Cc1noc(/C=C/N(C)C)c1S(=O)(=O)N1CCCC(C(=O)NC(C)c2ccccc2)C1 (centres unmarked),8.73
10,CCCCNCCOc1ccccc1-c1ccccc1.O=C(O)C(=O)O,3.5
11,CCC(C(=O)NCC1CCCO1)N(Cc1ccccc1)C(=O)CNS(=O)(=O)c1ccccc1 (centres unmarked),4.41
12,COc1ccc(Cl)cc1NC(=O)Nc1cn(C)nc1C,11.9
13,CCN=C1SC(C(=O)Nc2ccc(OC)cc2)CC(=O)N1CC (centres unmarked),10.1
14,CCOC(=O)C1=NN(C(=O)COc2ccccc2)C(O)(c2ccc(Cl)cc2)C1 (centres unmarked),-3.22
15,Cc1cc(/C=N/n2cnnc2)c(C)n1-c1cccc(Cl)c1,3.09
16,O=C(COC(=O)/C=C/c1cccc(C(F)(F)F)c1)Nc1ccc(Cl)cn1,14.5
17,CCc1ccc2c(c1)C(=O)C[C@]1(CCC[C@H](C)C1)O2,-5.59
18,Nc1ccc2nc(CCc3ccccc3)[nH]c2c1,2
19,CSc1nnc(-c2ccco2)c(-c2ccco2)n1,9.59
20,COc1ccc(-c2c3c(=O)n(C)c(=O)n(C)c3cn2-c2ccccc2O)cc1,14
